Assay results from the RNAGym collection of RNA variant scans (doi:10.1093/nar/gkz1192).
The source gives no read counts; variants with many changes may rest on few reads.

B1: CPEB3 Ribozyme (parent)
chain: UAACAGGGGGCCACAGCAGAAGCGUUCACGUCGCAGCCCCUGUCAGAUUCUGGUGAAUCUGCGAAUUCUGCUGUAUAUCUC

Variants of: B1
Experiment: self-cleavage, relative activity (ratio to wild type); higher = more cleavage; in vitro, sequencing
How it was run: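 Libraries of CPEB3 self-cleaving ribozyme mutants came from rounds of error-prone PCR and carried barcodes, which DNA sequencing matched to variants. In vitro transcription used T7 RNA polymerase at 37°C for 5 hours, with a further 15 min in DNase I before EDTA stopped the reaction; the ribozymes cleaved during both steps. The RNA was reverse transcribed with template switching and sequenced on Illumina. Relative activity is the cleaved/total read fraction of a variant divided by that of the unmutated ribozyme, averaged over three batches with at least 5 reads.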

Variant | self-cleavage
A13G A28U U41A G55C | 0.1
A13G A28U U48C U72A U80A | 0.15
A13G A35C U49C C62U U74A C79U | 0.11
A13G A35G A45C U49C | 0.06
A13G A35G A56U | 0.45
A13G A35G A64G | 0.53
A13G A35G A64U | 0.27
A13G A35G A65U U69C U80A | 0.16
A13G A35G G36C A64G | 0.23
A13G A35G G42A | 0.06
A13G A35G G46A U76A | 0.19
A13G A35G U41C G63A U69C | 0.15
A13G A35G U41G U76C | 0.22
A13G A35G U43C U72C | 0.35
A13G A35G U49A U54A U76C U78C | 0.45
A13G A35G U49C U69G | 0.48
A13G A35G U58C G61A C71U | 0.1
A13G A35G U58C U67C | 0.12
A13G A35G U58C U78A | 0.23
A13G A35G U72A | 0.15
A13G A35U A56G U72C | 0.64
A13G A35U A56U A64U | 0.06
A13G A35U A57G U67C U80C | 0.1
A13G A35U A75G | 0.58

Variant | self-cleavage
A13G A35U U41C G46U U60C U78C U80C | 0.07
A13G A35U U69A U72C | 0.15
A13G A45C A56G U66C U69C | 0.22
A13G A45C G52A | 0.23
A13G A45C G55A | 0.09
A13G A45G U49G | 0.18
A13G A45G U51C | 0.68
A13G A45G U58C A64G | 0.08
A13G A45G U60C | 1.11
A13G A45G U66C | 0.28
A13G A45G U69A U74A | 0.27
A13G A45G U76C | 0.67
A13G A45G U78C | 0.54
A13G A45U A47U | 0.19
A13G A45U A56U U80C | 0.16
A13G A45U A77G | 0
A13G A45U U69C A77U C79A | 0.29
A13G A45U U72A | 0.2
A13G A45U U74C A75U A77G | 0.36
A13G A47G A64G U72G | 0.24
A13G A47G U48G | 0.18
A13G A47G U49C A57G U78G | 0.33
A13G A47G U51A | 0.67
A13G A47G U58C | 0.81

Variant | self-cleavage
A13G A47G U72G A77G U78C | 0.27
A13G A47U G52A | 0.4
A13G A47U U78C | 0.28
A13G A56G C68G A75G U78C | 0.08
A13G A56G U58C U74A A75G | 0.23
A13G A56G U69A U78G | 0.32
A13G A56U G70A C71A | 0.16
A13G A56U U60C U80C | 0.17
A13G A56U U67C | 0.16
A13G A57G U69C A75G | 0.15
A13G A57G U69C U72A U80C | 0.25
A13G A57U A75G U78C | 0.3
A13G A64G U67G | 0.15
A13G A64U A77C | 0.23
A13G A64U U72C | 0.19
A13G A65G A77U U78C | 0.27
A13G A65G U72C | 0.1
A13G A65G U76A | 0.34
A13G A75U U80C | 1
A13G C14A A15U U43C A45G | 0.14
A13G C14A G33U G55C A77U | 0.06
A13G C14A U25C | 0.07
A13G C14U A20G U43C A64U U69A | 0.14
A13G C14U A28G U72C | 0.3

Variant | self-cleavage
A13G C14U C38U U49C | 0.09
A13G C14U G22C | 0.31
A13G C14U U58A | 0.32
A13G C17A A28U U31C U60C | 0.05
A13G C17G A45G A47G | 0.27
A13G C17G C40A U43A A64U A77U | 0.15
A13G C17G U41C G61A | 0.21
A13G C17G U49A U72C | 0.07
A13G C17U A20G U26C A35G G52C | 0.37
A13G C17U A21G U25C G33A U41A U67C | 0.03
A13G C17U C27U U80A | 0.21
A13G C17U G33A A35G A47G | 0.06
A13G C23G A28G U41C U58C U74C | 0.1
A13G C23G A28U G63A U69G U74C | 0.32
A13G C23G A47G U60C G61A U66A U76G | 0.04
A13G C23U A65U | 0.19
A13G C23U C27A | 0.24
A13G C23U C40U C44A C50G U51C U69A | 0.16
A13G C23U U25C | 0.24
A13G C23U U78C | 0.15
A13G C27A C32U C37U U58C | 0.04
A13G C27A U78A | 0.3
A13G C27U A56G U80C | 0.55
A13G C27U C40U U49C U54C G63A U72C | 0.05

Variant | self-cleavage
A13G C29U U72C | 0.21
A13G C32A C34U A45U U76A | 0.13
A13G C32U C34U U67A | 0.34
A13G C32U U54C | 0.08
A13G C32U U58A | 0.06
A13G C34G A45U U72C | 0.12
A13G C34G U66C | 0.06
A13G C34U A35G U41A U48C A56G U67C | 0.12
A13G C34U U43C U60G U74A A77G | 0.09
A13G C34U U51G | 0.14
A13G C37A A56G | 0.17
A13G C37A G42U A45U U72A | 0.33
A13G C37A U41C U51A | 0.3
A13G C37G U41C C50A U80C | 0.24
A13G C37G U43A A56U U72A U76A | 0.11
A13G C37G U72A U76A | 0.14
A13G C38A C50A U66C U67C C68U U80C | 0.2
A13G C38U C40U A47G U48C G52C U60A | 0.13
A13G C38U U43C U54C | 0.18
A13G C38U U49C | 0.15
A13G C38U U51C U54A A64U U66G U72A | 0.18
A13G C39A U51C | 0.16
A13G C39U A45U | 0.18
A13G C40A A45G | 0.06

Variant | self-cleavage
A13G C40A U41C A56G U66C U69C | 0.04
A13G C40A U43A U51G | 0.19
A13G C40G U43C U80A | 0.11
A13G C40G U58C | 0.07
A13G C44A A56U | 0.11
A13G C44U A45G | 0.2
A13G C50A A57G U72C | 0.51
A13G C50A U54C U69A | 0.13
A13G C50A U66C U69C | 0.19
A13G C59U U60A U67C | 0.12
A13G C62U U69A U78C | 0.19
A13G G16A A18G | 0.45
A13G G16A A28G | 0.02
A13G G16A U69C U72A | 0.09
A13G G16C A64G | 0.09
A13G G16U G24A A28U | 0.6
A13G G16U U25C U41A A45G | 0.2
A13G G19A A28G U43C U48C U67C U76A | 0.02
A13G G19A U25C U69C | 0.05
A13G G19A U43C | 0.1
A13G G19C A20G U51C U72C U76C A77C | 0.14
A13G G19C A77G | 0.25
A13G G19U A20U U43C | 0.07
A13G G19U A56G | 0.21

Variant | self-cleavage
A13G G19U U25C U48C U51C U80C | 0.05
A13G G19U U76C | 0.23
A13G G22A A64G | 0.18
A13G G22A U26A | 0.25
A13G G22C A47U A64G | 0.13
A13G G22C U49A A64U | 0.05
A13G G22C U58A | 0.18
A13G G24A A35G A45U U48C G73U | 0.07
A13G G24A C29U A35U A57G G61A A65G | 0.06
A13G G24A C32A A65G U66C | 0.07
A13G G24A U25A A47U | 0.2
A13G G24A U25C U41C | 0.21
A13G G24A U31C U43C U48C G73A | 0.03
A13G G24A U43C A65G U66A U67C | 0.04
A13G G24A U51C U72C | 0.03
A13G G24A U54A A64G | 0.09
A13G G24C U25C G36A U67A | 0.08
A13G G24U U58A A64G | 0.05
A13G G30A A35G G70U | 0.06
A13G G30A U41C A57G G70A | 0.09
A13G G30U A47U | 0.14
A13G G30U U31C U72A | 0.09
A13G G33A A35G G73C U78C | 0.33
